Assay results taken from PMC4336329 (PLoS ONE, 2015).
Hit rate of the full screen: of about 310,000 compounds, about 2,200 (0.71%) showed an effect of 50% or more. Effects have a minus sign here. The list shows a part of the results.

biological target: human ether-à-go-go-related gene (hERG) potassium channel (human, UniProt Q12809); experiment: primary screen, population patch clamp on CHO cells stably expressing hERG
Sequence (Q12809 whole entry, looked up): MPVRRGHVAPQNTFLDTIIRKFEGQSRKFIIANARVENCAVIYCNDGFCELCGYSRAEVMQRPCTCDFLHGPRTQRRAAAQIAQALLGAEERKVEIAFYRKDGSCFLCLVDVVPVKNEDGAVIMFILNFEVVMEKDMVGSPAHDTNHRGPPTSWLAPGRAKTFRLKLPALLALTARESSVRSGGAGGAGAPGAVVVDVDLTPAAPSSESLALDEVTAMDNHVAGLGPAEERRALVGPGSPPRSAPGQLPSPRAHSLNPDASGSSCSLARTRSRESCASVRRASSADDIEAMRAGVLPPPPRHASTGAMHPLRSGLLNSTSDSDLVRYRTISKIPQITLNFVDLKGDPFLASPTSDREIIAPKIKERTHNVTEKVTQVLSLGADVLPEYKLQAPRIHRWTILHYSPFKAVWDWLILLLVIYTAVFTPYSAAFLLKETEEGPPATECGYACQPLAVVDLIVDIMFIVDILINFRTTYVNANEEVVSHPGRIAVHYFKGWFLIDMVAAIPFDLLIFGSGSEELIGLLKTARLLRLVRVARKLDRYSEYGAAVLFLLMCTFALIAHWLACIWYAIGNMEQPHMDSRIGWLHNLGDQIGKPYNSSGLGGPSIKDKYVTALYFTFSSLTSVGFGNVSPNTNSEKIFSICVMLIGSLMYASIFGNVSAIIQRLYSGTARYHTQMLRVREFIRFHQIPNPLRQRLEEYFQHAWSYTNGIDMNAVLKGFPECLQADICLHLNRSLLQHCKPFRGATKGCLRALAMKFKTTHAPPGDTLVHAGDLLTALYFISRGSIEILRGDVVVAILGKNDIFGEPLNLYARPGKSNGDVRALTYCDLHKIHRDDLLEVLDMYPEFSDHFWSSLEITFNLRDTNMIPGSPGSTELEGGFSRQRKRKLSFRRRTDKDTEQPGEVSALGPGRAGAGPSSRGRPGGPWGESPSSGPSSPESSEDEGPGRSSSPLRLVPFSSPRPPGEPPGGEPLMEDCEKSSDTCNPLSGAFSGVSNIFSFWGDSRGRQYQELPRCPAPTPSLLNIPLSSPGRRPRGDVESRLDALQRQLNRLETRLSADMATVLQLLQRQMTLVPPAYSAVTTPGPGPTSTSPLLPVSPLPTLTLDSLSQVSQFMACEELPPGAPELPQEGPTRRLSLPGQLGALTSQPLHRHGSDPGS

Structure (SMILES)	hERG current change (%, negative = inhibition) at 1uM [%]
O=C(Nc1ccccc1)n1ccc(-c2ccc(-n3ccnc3)cc2)n1	15.5
CCOC(=O)/C=C/C(=O)OCC(=O)Nc1ccc(OC)c(Cl)c1	7.98
CCOC(=O)c1c(NC(=O)Nc2ccccc2)sc(C)c1C	5.5
NC(=O)c1cc(S(=O)(=O)N2CCN(c3cccc(Cl)c3)CC2)cs1	18.9
CCCN(CCC)Cc1c(C(=O)OCC)nnn1-c1nonc1N	9.71
CCOC(=O)Nc1nc(-c2ccc(Cl)cc2Cl)cs1	15.8
S=C(NCC1COc2ccccc2O1)Nc1ccccc1 (centres unmarked)	5.07
COCCn1c(SCC(=O)Nc2ccc(F)cc2)nc2c([nH]c3ccccc32)c1=O	2.51
COc1ccccc1NC(=O)C1CCN(S(=O)(=O)c2cccs2)CC1	6.49
CCN(C(=O)COC(=O)c1oc2ccc(OC)cc2c1C)C1CCCCC1	6.9
COc1cc([C@H]2Oc3c(OC)cc(CCCO[C@@H]4O[C@H](CO)[C@@H](O)[C@H](O)[C@H]4O)cc3[C@@H]2CO)ccc1O	3.87
CN1CCN(Cc2nc3c([nH]2)c(=O)[nH]c(=O)n3C)CC1	3.65
Cc1cc(-c2ccccc2)nc(N/N=C/c2ccco2)n1	7.11
O=C(N/N=C/c1cccs1)c1ccc2c(c1)OCO2	-1.52
Oc1ccc2ccccc2c1C=Nc1ccc(Cl)cn1	4.56
Cc1ccc(-c2nnc(Cc3ccc(Cl)cc3)o2)cc1	10.6
CCN(CC(=O)Nc1ccc(Cl)c(S(=O)(=O)N(C)C)c1)Cc1nc2ccccc2c(=O)[nH]1	5.07
Cc1ccc(-c2nc3c(c(SCC(=O)N4CCOCC4)n2)Cc2c(CO)cnc(C)c2O3)cc1	14.2
COc1cccc(/C=C/c2n[nH]c(=O)c(C#N)c2C)c1	9.7

Structure (SMILES)	hERG current change (%, negative = inhibition) at 1uM [%]
CCOC(=O)c1c(-c2ccc(C)cc2)csc1NC(=O)C1CC=CCC1C(=O)O (centres unmarked)	3.01
CC(C)OC(=O)c1cc2c(ccn2-c2ccc(F)cc2)n1CC(=O)N1CCN(C(=O)c2ccco2)CC1	-5.88
CCOC(=O)c1ccc2c(c1)nc(-c1ccccn1)n2CC	11
N/C(=N\OC(=O)c1ccccc1Cl)c1cccc([N+](=O)[O-])c1	10.9
O=C(NN1C(=O)c2ccccc2NC1c1ccco1)c1ccccc1 (centres unmarked)	4.38
CCOC(=O)CC1C(=O)NCCN1S(=O)(=O)c1ccc(OC)cc1 (centres unmarked)	10.7
O=C(Nc1cccnc1)c1cc(-c2ccccc2)on1	11.2
COc1ccc(-c2cccc(C3CC=CC4C3C(=O)N(Cc3ccccc3)C4c3ccc(C(F)(F)F)cc3)c2)cc1 (centres unmarked)	9.28
FC(F)(F)c1nc2ccccc2nc1N/N=C/c1ccc(Cl)cc1	4.54
N#C/C(=C\c1cn(-c2ccccc2)nc1-c1cccnc1)c1nnc2n1CCCCC2	-20.4
O=C(O)c1ccc(/C=N/NC(=O)c2ccc(F)cc2)cc1	14.9
CCCc1cc(C(=O)Nc2cc(OC)ccc2OC)cs1	13.4
O=C(CCCOc1ccc(Cl)cc1Cl)N/N=C\C1CCCCC1	6.47
CS(=O)(=O)c1ccc(-c2nnn(CC(N)=O)n2)cc1	10.6
Cc1nc(NCC2CCCO2)c2oc3ccccc3c2n1 (centres unmarked)	-7.63
Cc1ccc(C(=O)Nc2ccc3c(c2)OCCO3)o1	2.34
CSCCC(NC(=O)c1ccc([N+](=O)[O-])cc1Cl)C(=O)OC(C)C(=O)NCc1ccco1 (centres unmarked)	-10.7
COc1ccc(-c2c(C)n([O-])c(C)c(C)[n+]2=O)cc1	-0.35
CCCCn1c(N)c(N(Cc2ccccc2OC)C(=O)c2ccc([N+](=O)[O-])s2)c(=O)[nH]c1=O	7.38

Structure (SMILES)	hERG current change (%, negative = inhibition) at 1uM [%]
Nc1nnc(Cc2c[nH]c3ccccc23)s1	1.91
O=c1c(C=NCc2cccs2)c(O)n(C2CCCCC2)c(=O)n1C1CCCCC1	18.2
CCCn1c(NC(=O)c2ccc(Cl)c(S(=O)(=O)N3CCCC3)c2)nc2ccccc21	8.81
Cc1ccccc1NC(=O)COC(=O)CCSc1ccccc1	19.2
O=S1(=O)CCN(Cc2ccccc2Cl)CC1	6.18
OCC(Cc1ccccc1)NCc1ccccc1C(F)(F)F (centres unmarked)	4.8
O=C(NCCc1ccc(Cl)cc1)C1CCC(=O)N1C1CCCC1 (centres unmarked)	11
COC(=O)Oc1ccc(/C=N/NC(=O)CN(c2ccccc2Cl)S(C)(=O)=O)cc1OC	9.16
CC1CCN(C(=O)CCc2nnc3ccc(NCCCN4CCCC4=O)nn23)CC1	15.8
Cc1[nH]c2ccc(-c3n[nH]c(=S)n3-c3ccc(Br)cc3)cc2c1C	11.8
Cc1ccc(OCC(=O)N(Cc2ccccc2)c2ccccn2)cc1	9.13
NS(=O)(=O)c1ccc(N/C=C\C(=O)c2cccc3ccccc23)cc1	9.15
COC(=O)c1ccc(C23CC4(C2)[C@H](CN(CC2CCCCC2)[C@@H]4c2ccccc2)C3c2ccccc2)cc1 (some centres unmarked)	4.37
CC(=O)c1ccc(NC(=O)C2CCCN2S(=O)(=O)c2cccc3cccnc23)cc1 (centres unmarked)	12.5
CC1C2CC(C(S(=O)(=O)N3CCOCC3)C2=O)C1(C)C (centres unmarked)	2.62
Cc1ccc(NC(=O)Nc2ccc3c(c2)nc(C)n3C)cc1C	6.3
O=C1Nc2ccccc2/C1=C/c1cnc[nH]1	0.222
CCOC(=O)N1CCN(c2c(NCCN3CCN(c4ccccc4F)CC3)c(=O)c2=O)CC1	2.73
